In this test the target is Mammalian PARP, isolated from Hela cell nuclear extract (Homo sapiens, UniProt P09874). Kind of test: PARP inhibition assay (FlashPlate, 3H-NAD) to determine IC50. In kind it is biochemical. The settings on record: PARP enzyme activity, NAD 5 μM, 30 mer ds DNA-oligos, 30° C., 45 minutes, compound 10 to 0.01 μM. As for the experimental part:
In order to assess the inhibitory action of the compounds, the following assay was used to determine IC50 values.
The total assay volume per well was 40 μl.
After 10 minutes incubation at 30° C. the reactions were initiated by the addition of a 10 μl reaction mixture, containing NAD (5 μM), ^3H-NAD and 30 mer double stranded DNA-oligos. Designated positive and negative reaction wells were done in combination with compound wells (unknowns) in order to calculate % enzyme activities. The plates were then shaken for 2 minutes and incubated at 30° C. for 45 minutes.
Following the incubation, the reactions were quenched by the addition of 50 μl 30% acetic acid to each well. The plates were then shaken for 1 hour at room temperature.
The plates were transferred to a TopCount NXT (TRADE MARK) (Packard, UK) for scintillation counting. Values recorded are counts per minute (cpm) following a 30 second counting of each well.
The % enzyme activity for each compound is then calculated using the following equation: […]
Such IC50 values are used as comparative values to identify increased compound potencies.

pIC50: −log10 of the molar value.

For `O=c1[nH]nc(Cc2ccc(I)cc2)c2ccccc12` [Compound 151], the negative-log IC50 (pIC50) is 5.74. Turning to `O=c1[nH]nc(CSc2ccc(Cl)cc2)c2ccccc12` [Compound 90], the negative logarithm of the IC50 (pIC50) was 6.05. On to `O=c1[nH]nc(Cc2ccccc2)c2ccccc12` [Compound 145], for which the pIC50 was 6.10.

Turning to `CC(=O)Nc1ccc(Cc2n[nH]c(=O)c3ccccc23)cc1` [Compound 166], the pIC50 is 5.39. On to `Cc1ccccc1Cc1n[nH]c(=O)c2ccccc12` [Compound 163], for which the negative-log IC50 (pIC50) is 5.74.

With `O=c1[nH]nc(Cc2ccc(N3CCCC3)c([N+](=O)[O-])c2)c2ccccc12` [Compound 204], the pIC50 is 6.15.

`O=C(Nc1cc(Cc2n[nH]c(=O)c3ccccc23)ccc1N1CCOCC1)c1cccc(CN2CCCC2)c1` [Compound 254]: the pIC50 is at least 5.52. With `O=c1[nH]nc(Cc2cccc(F)c2)c2ccccc12` [Compound 192], the pIC50 is 5.85.

For the compound `O=C(Oc1cccc(Cc2n[nH]c(=O)c3ccccc23)c1)c1ccc(F)cc1` [Compound 212], the pIC50 is 6.05.

`O=c1[nH]nc(Cc2cccc3ccccc23)c2ccccc12` [Compound 131]: the pIC50 was 5.36. The result for `O=c1[nH]nc(Cc2ccccn2)c2ccccc12` [Compound 249] reads 6.15; that for `CC(=O)Oc1cccc(Cc2n[nH]c(=O)c3ccccc23)c1` [Compound 179], 7.40. The result for `COC(=O)c1cccc(Cc2n[nH]c(=O)c3ccccc23)c1` [Compound 277] reads 6.22; that for `O=c1[nH]nc(Cc2cccc(Br)c2)c2ccccc12` [Compound 211], 6.40. For the compound `Nc1cccc(Cc2n[nH]c(=O)c3ccccc23)c1` [Compound 160], the pIC50 was 5.89. In the case of `O=c1[nH]nc(Cc2ccc(O)cc2)c2ccccc12` [Compound 164], the pIC50 was 5.74.

For `Nc1ccc(Cc2n[nH]c(=O)c3ccccc23)cc1` [Compound 159], the pIC50 was 5.46.

`O=c1[nH]nc(Cc2ccccc2F)c2ccccc12` [Compound 141]: the negative logarithm of the IC50 (pIC50) was 5.85. With `O=c1[nH]nc(Cc2cccnc2)c2ccccc12` [Compound 178], the negative logarithm of the IC50 (pIC50) was 6.70. As to `COc1cc(Cc2n[nH]c(=O)c3ccccc23)ccc1OCc1ccccc1` [Compound 222], the pIC50 was 5.66. The result for `O=C(Nc1ccccc1)Nc1cccc(Cc2n[nH]c(=O)c3ccccc23)c1` [Compound 215] reads 5.40. As for `COc1cc(Cc2n[nH]c(=O)c3ccccc23)ccc1O` [Compound 239], the negative logarithm of the IC50 (pIC50) is 6.22.

For the compound `O=C(Nc1cccc(Cc2n[nH]c(=O)c3ccccc23)c1)c1ccc(F)cc1` [Compound 170], the negative-log IC50 (pIC50) was 6.40. As to `O=C(Nc1cccc(Cc2n[nH]c(=O)c3ccccc23)c1)c1ccccc1` [Compound 171], the negative-log IC50 (pIC50) is 6.22. As for `CC(=O)Oc1ccc(Cc2n[nH]c(=O)c3ccccc23)cc1` [Compound 213], the negative-log IC50 (pIC50) is 5.36. With `O=c1[nH]nc(Cc2ccc(Cl)cc2)c2ccccc12` [Compound 126], the negative-log IC50 (pIC50) was 5.74. Under `COc1cc(Cc2n[nH]c(=O)c3ccccc23)ccc1F` [Compound 241] stands 6.05; under `O=C(O)COCC(=O)Nc1cc(Cc2n[nH]c(=O)c3ccccc23)ccc1N1CCOCC1` [Compound 206], 5.92.

For the compound `O=C(Nc1cc(Cc2n[nH]c(=O)c3ccccc23)ccc1N1CCOCC1)c1cccc(CN2CCOCC2)c1` [Compound 253], the pIC50 is at least 5.52.

As for `O=c1[nH]nc(Cc2ccc(Br)cc2)c2ccccc12` [Compound 129], the pIC50 was 5.80.

Consider `O=c1[nH]nc(Cc2cccc(Cl)c2)c2ccccc12` [Compound 186], for which the negative logarithm of the IC50 (pIC50) was 5.96.

On to `Cn1ccnc1SCc1n[nH]c(=O)c2ccccc12` [Compound 92], for which the pIC50 is 5.89. For `O=C(Nc1ccc(F)cc1)Nc1cccc(Cc2n[nH]c(=O)c3ccccc23)c1` [Compound 216], the pIC50 was 6.52. As for `O=C(Nc1ccc(Cc2n[nH]c(=O)c3ccccc23)cc1)c1ccccc1` [Compound 167], the pIC50 is 5.80.

For the compound `O=C(Nc1cccc(Cc2n[nH]c(=O)c3ccccc23)c1)c1cccs1` [Compound 169], the pIC50 is 6.22.

As to `Cc1ccc(Cc2n[nH]c(=O)c3ccccc23)cc1` [Compound 139], the pIC50 is 5.77. As for `O=c1[nH]nc(Cc2ccc(F)cc2)c2ccccc12` [Compound 132], the pIC50 was 6.15. With `O=c1[nH]nc(Cc2cccc(Oc3ccccc3)c2)c2ccccc12` [Compound 193], the negative logarithm of the IC50 (pIC50) was 6.00.

Turning to `O=c1[nH]nc(Cc2ccccc2F)c2ccccc12` [Compound 248], the pIC50 is 6.00. Regarding `O=c1[nH]nc(Cc2cccc(OCc3ccccc3)c2)c2ccccc12` [Compound 194], the pIC50 was 5.85. The result for `O=c1[nH]nc(CSc2ccccn2)c2ccccc12` [Compound 91] reads 5.48; that for `O=C(Nc1ccc(Cc2n[nH]c(=O)c3ccccc23)cc1)c1ccc(F)cc1` [Compound 227], 6.40. Take `O=c1[nH]nc(Cc2ccc(F)c(O)c2)c2ccccc12` [Compound 247]: the pIC50 was 6.30. Under `O=c1[nH]nc(Cc2ccc3c(c2)OCO3)c2ccccc12` [Compound 180] stands 5.89; under `O=c1[nH]nc(Cc2ccc(F)c(F)c2)c2ccccc12` [Compound 202], 7.15. The result for `O=c1[nH]nc(Cc2cccc(C(F)(F)F)c2)c2ccccc12` [Compound 191] reads 5.89; that for `COc1ccc(Cc2n[nH]c(=O)c3ccccc23)cc1` [Compound 138], 5.92; that for `O=C(CCCCl)Nc1cc(Cc2n[nH]c(=O)c3ccccc23)ccc1N1CCOCC1` [Compound 265, 4-chloro-N-[2-morpholino-5-(1-oxophthalazin-4-ylmethyl)phenyl]butyramide], at least 5.52. Under `O=c1[nH]nc(Cc2ccncc2)c2ccccc12` [Compound 177] stands 6.10; under `O=C(O)c1cccc(Cc2n[nH]c(=O)c3ccccc23)c1` [Compound 276], 5.60. As to `O=c1[nH]nc(Cc2cccc(O)c2)c2ccccc12` [Compound 165], the pIC50 is 6.52.

Regarding `COC(=O)CSCc1n[nH]c(=O)c2ccccc12` [Compound 93], the pIC50 is 5.68.

In the case of `Nc1cc(Cc2n[nH]c(=O)c3ccccc23)ccc1N1CCSCC1` [Compound 198], the pIC50 is 5.42.

A word on the pIC50: it is the negative decadic logarithm of the IC50, by convention in mol/L.
